The campaign covered roughly 300,000 compounds. About 22,000 (7.3%) were called active. Inconclusive results, whose numbers are uncertain, are shown with a selection of clear calls. No stated cut-off is given here; in the data, active means activity score below about -60%; inconclusive means mostly about -28% to -61%; inactive means positive scores.
Experiment: Activators via SNCA 5'UTR binding, MLPCN (AID 1814)
Settings: alpha-synuclein 5'UTR reporter, activators screen; hits give low values; tested at 7.5 µM

Row | Compound | activity score
1 | Cc1c(NC(=O)C(=O)/C=C(/O)c2ccccc2)c(=O)n(-c2ccccc2)n1C | inconclusive: -42.4%
2 | Cc1nn(Cc2cccc(F)c2)c(C)c1NC(=O)c1ccc(COc2ccccc2Cl)cc1 | inactive: 68.8%
3 | COC(=O)c1ccc(NC(=S)NC2CCCCC2)cc1 | inconclusive: -57.7%
4 | O=C(Nc1nc(-c2ccc(Cl)cc2)cs1)C1=COCCO1 | active: -109%
5 | O=C(NCCc1cccs1)C1CC(c2ccccc2[N+](=O)[O-])=NO1 (centres undefined) | active: -92.9%
6 | Cc1ccc(NC(=O)C(C)OC(=O)Cc2c[nH]c3ccccc23)cc1 (centres undefined) | inconclusive: -57.1%
7 | CCOc1cc(NC(=S)Nc2cccc(OC)c2)c(OCC)cc1NC(=O)c1ccc(C)cc1 | inconclusive: -31%
8 | O=c1c2ccccc2ncn1/N=C/c1ccccc1 | active: -192%
9 | Cc1sc(NC(=O)c2ccco2)c(C(c2ccccc2)N2CCC(C)CC2)c1C (centres undefined) | inconclusive: -45.6%
10 | COc1cccc(-c2cn3nc4c(nc3n2)CCCC4)c1 | inactive: 104%
11 | Nc1cc(CN2C(=O)c3ccccc3C2=O)cc(Cl)c1O | inconclusive: -51.2%
12 | Cc1nc2nc(-c3cccs3)[nH]c2cc1Br | active: -149%
13 | O=S(=O)(c1ccc(Cl)cc1)N1CCN(Cc2ccc(O)c3ncccc23)CC1 | inactive: 77.2%
14 | CCSc1nnc2c(n1)[nH]c1c(C)cccc12 | active: -208%
15 | CC(=O)Nc1ccc(NC(=O)CSc2ccc(-c3ccco3)nn2)cc1 | inconclusive: -48.6%
16 | O=C(c1ccc(COc2ccc(Cl)cc2)cc1)N1CCCCC1 | active: -85.5%
17 | O=C(NCC1CCCO1)c1c(O)c2ccccc2[nH]c1=O (centres undefined) | active: -140%
18 | CCCOC(=O)c1ccc(NC(=O)C(=O)NCC2CCCO2)cc1 (centres undefined) | inconclusive: -60.7%
19 | S=C1NC(c2ccccc2)N2C(=S)NC(c3ccccc3)N12 (centres undefined) | inconclusive: -53.2%
20 | CCc1ccccc1NC(=S)NC1CC2CCCC(C1)N2Cc1cccs1 (centres undefined) | inconclusive: -26.7%

Row | Compound | activity score
21 | CN1CCN(c2ccc(NC(=O)c3ccc(Br)o3)cc2)CC1 | inconclusive: -57.3%
22 | O=C1NCCc2c1[nH]c1ccc([N+](=O)[O-])cc21 | inactive: 70.1%
23 | CCOC(=O)Cc1csc(NC(=O)C(C)(C)CC)n1 | inconclusive: -44.5%
24 | COc1ccc(C(=O)/C=C/c2ccc(OC(=O)c3cc(OC)c(OC)c(OC)c3)cc2)cc1 | inconclusive: -53.8%
25 | Nc1nonc1-c1noc(CCCN2C(=O)c3ccccc3C2=O)n1 | active: -108%
26 | COc1ccc(C(=O)Nc2ccccc2NC(=O)c2ccc(OC)cc2)cc1 | inconclusive: -38%
27 | Cc1ccc(C(C[N+](=O)[O-])Sc2ccc(N)cc2)cc1 (centres undefined) | inconclusive: -56.1%
28 | CCCS(=O)(=O)N1CCN(S(=O)(=O)c2ccccc2[N+](=O)[O-])CC1 | inconclusive: -51.2%
29 | CC(=O)c1cnc2c(-c3cccc(Br)c3)cnn2c1C | inconclusive: -61.3%
30 | COc1ccccc1NC(=O)N1CCC(c2nc3cc(C)c(C)cc3[nH]2)CC1 | inactive: 74.3%
31 | N#Cc1c(NC(=O)CCCC(=O)O)sc2c1CCCCC2 | inactive: 90.3%
32 | CCOCC(=O)Nc1c(C(=O)Nc2ccccc2OC)oc2ccccc12 | inconclusive: -48.2%
33 | COc1ccccc1NC(=O)COc1ccc(C(F)(F)F)cc1[N+](=O)[O-] | active: -72.7%
34 | C=CCN=C1NN=C(c2cc(C)n(CCOC)c2C)CS1 | inactive: 85.8%
35 | Cc1ccc(S(=O)(=O)[N-]c2nc3ccccc3nc2-n2cc[n+](Cc3ccccc3)c2)cc1 | active: -97.1%
36 | Cc1ccc(OCC(O)Cn2c(=N)n(CCN3CCCCC3)c3ccccc32)cc1 (centres undefined) | inconclusive: -53.3%
37 | Cc1c(C#N)c(O)n(C)c(=O)c1N=Nc1ccc(S(N)(=O)=O)cc1 | inconclusive: -49.9%
38 | Cc1cccc(C)c1NC1=NC(=S)N(c2ccccc2)C12CCOC(C)(C)C2 (centres undefined) | inconclusive: -59.2%
39 | CC1(C)CC(=O)c2c(nc(SCC(=O)Nc3nsc(-c4ccccc4)n3)c(C#N)c2-c2ccccc2)C1 | inactive: 74.1%
40 | CCc1ccc(NC(=O)c2cnn3ccccc23)cc1 | inactive: 77.9%

Row | Compound | activity score
41 | S=C(NCc1cccs1)Nc1ccc(Br)cc1Cl | inconclusive: -59.5%
42 | Cc1ccc(-c2nc(N)s[n+]2-c2ccccc2)cc1 | inconclusive: -49.8%
43 | O=C(/C=C/c1cc2ccccc2o1)c1ccccc1O | active: -161%
44 | COc1cc(C)c(C(C)C)cc1S(=O)(=O)n1cnc(C)c1 | inactive: 64.3%
45 | c1ccc(-c2ccc(-c3[nH]ncc3CN3CCC(N4CCSCC4)CC3)cc2)cc1 | active: -143%
46 | COC(=O)c1cc(Nc2cc(C)c3c(O)cccc3n2)cc(C(=O)OC)c1 | inconclusive: -44.7%
47 | COc1ccc(-c2nc3ccccc3c(=O)[nH]2)cc1 | inconclusive: -59.9%
48 | COC(=O)Nc1nnc(-c2ccc(OC)cc2)s1 | active: -76.2%
49 | Cc1ccc(-c2nn(CC(=O)NCc3cc(-c4nn(C)c(=O)c5ccccc45)ccc3C)c(=O)c3ccccc23)cc1 | inactive: 114%
50 | CCCCC1(C)OC(=O)C(=Cc2c[nH]c3ccccc23)C(=O)O1 (centres undefined) | inconclusive: -30.5%
51 | OCCCNc1cc(-c2ccnc(Nc3cccc(Cl)c3)n2)ccn1 | inactive: 110%
52 | CCCNC(=O)c1cc2c3ccccc3n(C)c2s1 | inconclusive: -45.9%
53 | Cc1ccc(C)c(NC(=O)c2nc(Cl)ccc2Cl)c1 | inconclusive: -54.3%
54 | Cc1ncoc1C(=O)N1CCCC(C(=O)c2ccc3c4c(cccc24)CC3)C1 (centres undefined) | inconclusive: -48.3%
55 | Cc1ccc(-c2nn(-c3ccccc3)cc2/C=N/n2c(-c3ccncc3)n[nH]c2=S)cc1 | active: -85.9%
56 | COc1cccc(-c2cc(C(=O)NC3CCCC3)no2)c1 | active: -115%
57 | CCOC(=O)c1sc(-c2ccccc2)nc1C | inconclusive: -60.2%
58 | Cc1ccc(-c2cn3c(=O)cc(C)[nH]c3n2)cc1 | inconclusive: -61.5%
59 | Cc1ccc(C)c(NC(=O)CN(C)C(=O)c2cc3ccccc3o2)c1 | inconclusive: -58.5%
